Experimental data from PubChem BioAssay AID1240 (Sanford-Burnham Center for Chemical Genomics, 2008).
The campaign covered roughly 50,000 compounds. About 800 (1.6%) showed an effect of 50% or more. The list shows a part of the results.

target: Bcl-2-like protein 10 (Homo sapiens) (UniProt Q9HD36); experiment: Phenotype converters, Bcl-B/TR3 peptide binding displacement, primary biochemical FP (AID 1240); conditions: GST-Bcl-B / FITC-TR3 peptide fluorescence polarization; stronger effect = higher value; compound at 3.75 mg/L;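 note: 0% = Bcl-B with tracer peptide and DMSO and 100% = tracer peptide lacking Bcl-B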
Sequence of UniProt Q9HD36 (Q9HD36 whole entry, looked up): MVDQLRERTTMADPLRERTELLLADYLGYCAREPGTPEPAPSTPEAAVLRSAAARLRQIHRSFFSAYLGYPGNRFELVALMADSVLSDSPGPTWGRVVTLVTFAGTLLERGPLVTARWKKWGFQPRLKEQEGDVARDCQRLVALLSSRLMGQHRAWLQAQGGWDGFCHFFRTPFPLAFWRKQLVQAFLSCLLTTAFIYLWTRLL

Row | SMILES | displacement
1 | CC(=O)c1ccc(NC(=O)c2ccccc2C)cc1 | 18.9%
2 | CCSc1nnc(NC(=O)c2c(C)c(-c3ccc(C)cc3)nc3ccccc23)s1 | -3.3%
3 | COc1cc(/C=C2\C(=O)NN(c3ccccc3)C2=O)cc([N+](=O)[O-])c1O | -0.6%
4 | CCOC(=O)C(=CNCCC(=O)O)C(=O)OCC | 14.6%
5 | CCN(CC)c1ccc(/C=N/NC(=O)CN(c2ccc(OC)cc2)S(=O)(=O)c2ccccc2)cc1 | 7.1%
6 | CCOc1ccc(C(=O)Nc2ccccc2OC)cc1Br | 2.4%
7 | O=c1c(O)c(-c2ccc3c(c2)OCO3)oc2ccccc12 | -8.7%
8 | NC(=O)c1c(NC(=O)c2cccc(Cl)c2)sc2c1CCCC2 | -4.7%
9 | CCC(=NNC(=O)Nc1c(C)cccc1C)c1ccc(O)cc1 | -9.7%
10 | CC1CCC(N2CCN(S(=O)(=O)c3ccc(Cl)cc3)CC2)CC1 (stereo not given) | -10.5%
11 | CCOC(=O)C1=C(C)N=c2s/c(=C\c3cc([N+](=O)[O-])cc(Br)c3O)c(=O)n2C1c1cccs1 (stereo not given) | -6.4%
12 | Cc1cc(C)cc(OCC(=O)NCc2cccnc2)c1 | 1.6%
13 | CCN(CC)CCCCOc1c(OC)cccc1OC | -10.1%
14 | CCOc1ccc2ccc(OCC)c(/C=C3\C(=O)NC(=O)N(c4ccc5c(c4)OCO5)C3=O)c2c1 | 17.5%
15 | O=C(CC1SC(=Nc2ccccc2)N(c2ccccc2)C1=O)NCc1ccccc1 (stereo not given) | -10.3%
16 | CSc1ccc(/C=C(\NC(=O)c2ccc(C)cc2)C(=O)Nc2cccc(F)c2)cc1 | 127%
17 | COc1ccc(NC(=O)c2ccc(CN3CCc4ccccc4C3)cc2)cc1OC | 12.1%
18 | Cc1cccc2sc(NC(=O)c3ccc(S(=O)(=O)N4CCCc5ccccc54)cc3)nc12 | 7.4%
19 | CCOc1ccc(C(=O)Nc2ccsc2C(=O)OC)cc1 | 4%
20 | COc1ccc(CNC(=O)C(N)=O)cc1 | 8.7%
21 | O=C1c2ccccc2C(=O)N1CN1CCN(Cc2ccccc2)CC1 | 14.4%
22 | Cc1ccc(S(=O)(=O)N(Cc2ccccc2)c2ccccc2C(=O)NCc2ccccc2)cc1 | 10.7%

Row | SMILES | displacement
23 | O=C(NC(C(=O)NCc1ccccc1)C12CC3CC(CC(C3)C1)C2)c1ccc(F)cc1 (stereo not given) | -7.2%
24 | Cc1cccc(C)c1OCC(=O)Nc1sc2c(c1C#N)CCCC2 | -0.3%
25 | COc1cc(C2C3=C(CCCC3=O)OC3=C2C(=O)CCC3)cc(OC)c1OC | -1.5%
26 | O=c1oc2cc(OCc3ccc(Cl)cc3Cl)ccc2c2c1CCC2 | 9.8%
27 | CC(=O)Nc1cc(C(=O)O)cc(N)c1Cl | 14.3%
28 | Cc1cc(C)nc(NS(=O)(=O)c2ccc(NC(=O)c3ccco3)cc2)n1 | -4.7%
29 | CC12CNCC(C)(CN(Cc3ccc(Br)cc3)C1)C2 | -3.4%
30 | Cc1c(C#N)sc2nc(-c3ccccc3)nc(/N=C/N(C)C)c12 | -6.7%
31 | CC(C)(C)c1nc2sc3c(c2c(=O)[nH]1)CCCC3 | -3.5%
32 | CCOC(=O)c1c(N)sc2c1CC(C(C)C)OC2 (stereo not given) | -16.3%
33 | CC(C1CC1)N1C(=O)C2C(C1=O)C1C=CC2C12CC2 (stereo not given) | -4.1%
34 | Oc1c(C=Nc2cccc3ccccc23)sc2ccccc12 | -25.8%
35 | O=c1cnnc(N/N=C\c2c(Cl)cccc2Cl)[nH]1 | -11.7%
36 | CCOc1ccc(NC(=S)NC(=O)c2ccccc2)c([N+](=O)[O-])c1 | 10.6%
37 | COC(=O)C1=C(O)CSC1=Nc1ccccc1 | -8.7%
38 | c1ccc2c(c1)nc1n2CCN1CCNC1CCCCC1 | -6.8%
39 | CCOc1ccc(-c2c(C#N)c(N)n3c(nc4ccccc43)c2C#N)cc1OC | -8.9%
40 | O=c1c(Cc2ccccc2)c(O)nc2n1CCCS2 | 2.3%
41 | Cc1ccc(C23CC4CC(CC(C(=O)NC(C)C(=O)NC(C)(C)C)(C4)C2)C3)cc1 (stereo not given) | -13.8%
42 | CCOc1cc(OCC)cc(C(=O)Nc2ccc(I)cc2Cl)c1 | 1.1%
43 | CCC1CCc2c(sc(NC(=O)c3ccccc3[N+](=O)[O-])c2C(=O)OC)C1 (stereo not given) | -7.8%
44 | COc1ccc(C2(C#N)CCOCC2)cc1OC | -6%

Row | SMILES | displacement
45 | O=C(CSc1nc2ccccc2s1)OCC(=O)c1ccccc1 | -5.2%
46 | O=[N+]([O-])c1ccccc1S(=O)(=O)Nc1ccc(S(=O)(=O)N2CCCCC2)cc1 | 0.7%
47 | Cc1ccc(S(=O)(=O)n2nnc3ccccc32)c(C)c1 | -4.4%
48 | O=C(/C=C/c1nc2ccccc2[nH]1)c1c(-c2ccccc2)c2cc(Cl)ccc2[nH]c1=O | -10.7%
49 | COc1ccc2c(c1)C(=O)N(c1ccc(C)cc1C)C(=O)/C2=C/N1CCOCC1 | 14.7%
50 | CCOc1cc(/C=C2/SC(=S)N(CC)C2=O)ccc1OCc1ccccc1Cl | 5.1%
51 | COc1ccc(OC)c(NC(=O)CN(c2ccc(Cl)cc2)S(C)(=O)=O)c1 | -2.5%
52 | O=C(/C=C/c1ccccc1)NC(=S)Nc1ccc(I)cc1 | 11.6%
53 | O=C1c2ccccc2C(=O)N1c1ccc2nc(Sc3nc4ccc([N+](=O)[O-])cc4s3)sc2c1 | -9.9%
54 | O=C(Nc1ccc(Cl)cc1Cl)c1ccc(Cl)cc1Cl | -1.6%
55 | NC(=O)c1ccccc1NC(=O)c1ccncc1 | -5.7%
56 | O=C(/C=C\c1ccccc1)Nc1ccc(Cl)c(-c2nc3ccccc3o2)c1 | 3%
57 | CSc1ccc(C2C(C(=O)OCCOc3ccccc3)=C(C)NC3=C2C(=O)CCC3)cc1 (stereo not given) | -7.1%
58 | COc1ccccc1C(=O)Nc1nc2ccccc2n1CCOc1ccccc1 | -23.3%
59 | Cc1cccc(OCC(=O)Nc2ccc3c(c2)-c2ccccc2C3)c1 | 2.7%
60 | Cc1ccc(S(=O)(=O)N(CC(O)CN(CC(C)C)CC(C)C)c2cccc(C)c2)cc1 (stereo not given) | 10%
61 | CC(=O)Nc1ccc(NC(=O)c2ccc(C)cc2)cc1 | -1.1%
62 | CCCC(=O)N/C(N)=N\c1nc(C)c2ccccc2n1 | 0.1%
63 | C=CCc1ccccc1OCCOc1ccc(Br)cc1/C=C1/SC(=S)N(C)C1=O | -1.8%
64 | COC(=O)c1c(NC(=O)c2cccc(F)c2)sc(C)c1C | 9.1%
65 | Cc1c(NC(=O)CSc2nc3ccccc3n2C)c(=O)n(-c2ccccc2)n1C | 16%
66 | O=C(Nc1ccc(S(=O)(=O)Nc2ncccn2)cc1)C1COc2ccccc2O1 (stereo not given) | 7.4%

Row | SMILES | displacement
67 | O=C(N/N=C/c1ccc(Br)cc1)C1CC(=O)N(c2ccc(Cl)cc2)C1 (stereo not given) | -8.7%
68 | CN(C)Cn1c(O)c(N=NC(=O)c2ccncc2)c2cc(Br)ccc21 | -8.9%
69 | Cc1ccc(-c2cc(C(=O)N3CCOCC3)c3ccccc3n2)c(C)c1 | -4.9%
70 | COc1ccccc1C(NC(=O)Cc1ccccc1)c1c(OC(C)=O)ccc2ccccc12 (stereo not given) | -13%
71 | CCOc1ccc(C(=O)Nc2ncc([N+](=O)[O-])s2)cc1OCC | 14.9%
72 | O=C(CN1C(=O)c2ccc([N+](=O)[O-])cc2C1=O)Nc1ccc(O)cc1C(=O)O | 17.5%
73 | Cc1cccc(NC(=O)c2ccccc2NC(=O)c2cccs2)c1C | 9.5%
74 | COC(=O)C1=C(C)NC2=C(C(=O)c3ccccc32)C1c1ccccc1OCc1ccccc1F (stereo not given) | 11.7%
75 | COc1ccccc1NC(=O)C(=O)NCCc1ccccc1 | 14.7%
76 | C=CCN1C(=O)/C(=C\c2ccc(-c3ccccc3)o2)SC1=S | 5.6%
77 | Cc1ccc(C(=O)Nc2ccc3oc(-c4cccc(Br)c4)nc3c2)cc1[N+](=O)[O-] | 13.7%
78 | O=C(N/N=C\c1cc([N+](=O)[O-])ccc1N1CCCC1)c1ccccn1 | -12.4%
79 | O=C(COc1ccc(-c2ccccc2)cc1)N/N=C/c1ccncc1 | 5.2%
80 | CN1C(=O)NC(=O)/C(=C/c2cccc3ccccc23)C1=O | -2.2%
81 | O=C(Nc1cccnc1)c1ccc(-c2cccc(Cl)c2)o1 | -7.1%
82 | COc1ccc(/C=C2\CCC/C(=C\c3ccc(OC)c(OC)c3)C2=O)cc1OC | 16.1%
83 | Cc1onc(-c2c(Cl)cccc2Cl)c1C(=O)NCC1CCCO1 (stereo not given) | 7.2%
84 | O=C(O)C1CC=C(Cl)CC1C(=O)Nc1cncs1 (stereo not given) | 2.3%
85 | Ic1ccc(N=Cc2ccc(OC3CSC3)cc2)cc1 | -4.3%
86 | Cn1c2ccccc2c2nnc(SCCN3CCOCC3)nc21 | -0.6%
87 | Cc1c(C(=O)Nc2cc(Cl)cc(Cl)c2)oc2ccccc12 | 13.1%
88 | CC(=O)c1ccc(NC(=S)Nc2ccc(F)cc2)cc1 | 5%

Row | SMILES | displacement
89 | COc1ccc(/C=C2\C(=O)NC(=S)N(c3cccc(Br)c3)C2=O)c(OC)c1 | -0.7%
90 | COc1ccc(NC(=O)C2C3C=CC(O3)C2C(=O)O)c(OC)c1 (stereo not given) | -3.3%
91 | C=CCC1(C#N)C(=S)NC2=C(C(=O)CC(C)(C)C2)C1c1ccccc1 (stereo not given) | -9.8%
92 | Cc1ccc(C(=O)NCCCn2ccnc2)cc1C | -3.5%
93 | CCc1c(C)c2ccc(OCc3ccccc3)c(C)c2oc1=O | -3.1%
94 | Cc1cccc2c(=O)oc(-c3ccc(F)cc3)nc12 | 24.6%
95 | O=C(Nc1ccccc1[N+](=O)[O-])C1C(c2ccccc2)C1(Cl)Cl (stereo not given) | 5.9%
96 | Cc1sc(NC(=O)c2cccc([N+](=O)[O-])c2)c(C(N)=O)c1C | 8.7%
97 | COc1cccc(-c2nc(-c3cccc([N+](=O)[O-])c3)no2)c1 | -6.4%
98 | C/C(=N\Nc1nc(-c2ccccc2)cs1)c1ccc([N+](=O)[O-])cc1 | 12.6%
99 | CC(C)c1ccc(CNC(=O)CSc2nnc(-c3cccc(F)c3)n2-c2ccccc2)cc1 | -18.5%
100 | Cc1cccc(C(C2=C(O)CC(C)(C)CC2=O)C2C(=O)CC(C)(C)CC2=O)c1 (stereo not given) | -8.5%
101 | O=C1NC(=O)/C(=C\c2ccc(O)c(Br)c2)S1 | -18.2%
102 | CC1(C)CC(NC(=S)Nc2ccccc2)CC(C)(C)N1 | 9.6%
103 | Oc1ccccc1/C=N\Nc1nc(-c2ccc(Cl)cc2)cs1 | -10.8%
104 | O=C(COc1ccccc1)Nc1cccc2ccccc12 | 5.4%
105 | O=C1CC(C2CCCO2)C(=O)N1c1cccc(Cl)c1 (stereo not given) | -19%
106 | COc1ccccc1C(=O)Nc1nc2ccc([N+](=O)[O-])cc2s1 | -3.7%
107 | CC(C)(C)c1cnnn1-c1ccc(C=O)cc1 | -3.2%
108 | Cc1ccc(S(=O)(=O)Oc2cccc(/C=C3\SC(=S)NC3=O)c2)cc1 | -87.6%
109 | CCOC(=O)c1c(NC(=O)c2cccc(Cl)c2)sc(C(=O)Nc2ccc(OC)cc2OC)c1C | 12.3%
110 | COc1ccc(OC)c(/C=C2\SC(N3CCC(C)CC3)=NC2=O)c1 | -8.7%
